Data published in PubChem BioAssay (NCI).
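96-well plates; 48 h exposure; 5 concentrations. Endpoints by linear interpolation between flanking doses. Not reached: highest tested concentration assigned. GI50 is the concentration that inhibits growth by half. Definition used: TGI = concentration required for complete inhibition of growth.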

test system: NCI-H322M lung; test: NCI tumour cell line growth inhibition, 48 h

| SMILES | TGI | GI50 |
| --- | --- | --- |
| CC(=O)Nc1ccc(N2C(=O)/C(=C\c3cccc(Oc4ccccc4)c3)S(=O)(=O)C2c2ccccc2)cc1 (centres undefined) | > 100 µM |  |
| CN1CCN(C(=O)CCNC(=O)Cc2ccc(C(=O)c3ccccc3)cc2)CC1 | > 100 µM |  |
| S=C1NC2(CCCCCC2)NN1c1ccccc1 | > 100 µM |  |
| CCn1c(-c2nonc2N)nc2c(C#CC(C)(C)O)nc(OC[C@H](N)c3ccccc3)cc21 | 12.5 µM | 5.1 µM |
| CC(=O)O[C@H]1C[C@H]2[C@@H](OC(C)=O)/C=C3\C[C@](C)(C(=O)[C@H](O)C(=C1C)C2(C)C)[C@@H](O)C[C@@H]3OC(=O)[C@H](O)[C@H](c1ccccc1)N(C)C | > 100 µM |  |
| COc1ccc(C(=O)C(c2ccc(OC)cc2)C2(O)C(=O)Nc3ccc([N+](=O)[O-])cc32)cc1 (centres undefined) | > 100 µM |  |
| COc1ccc(-n2cc(-c3cc(OC)c(OC)c(OC)c3)c(C(=O)C(F)(F)F)c2C)cc1 | > 100 µM | > 100 µM |
| N#Cc1nc(Nc2cccc3ccccc23)sc1N | > 100 µM |  |
| COc1ccc2c(c1)CCCC(Br)C2=O (centres undefined) | 31.6 µM |  |
| CCCCC1=NNC(=O)C1 | > 100 µM |  |
| CS(=O)(=O)Nc1ccc2c(c1)oc(=O)c1ccccc12 | > 100 µM |  |
| CNC(C#N)c1ccc(OC)cc1 (centres undefined) | > 100 µM |  |
| CC(C)(C)[Si](OC1CC(n2cnc3c(N)ncnc32)OC1CO)(c1ccccc1)c1ccccc1 (centres undefined) | 43.9 µM |  |
| CCOC(=O)c1c(NC(=O)c2cccs2)sc2c1CCCC2 | > 100 µM |  |
| O=C(O)CC(CC(=O)O)C(=O)O | > 100 µM |  |
| CCOC(=O)CCCn1c(SC)nc2[nH]cc(-c3ccccc3)c2c1=O | > 100 µM | > 100 µM |
| Cn1cc(CO)c2c1C(=O)C=C(N1CC1)C2=O | 0.0533 µM | 0.0161 µM |
| CC(O)CCC(=O)c1ccoc1 (centres undefined) | > 10000 µM |  |
| CC(C)(Br)C(Br)CCC1(C2CO2)CO1 (centres undefined) | > 5 µM |  |
| CS(=O)(=O)O[C@H]1CN2C[C@@H](O)[C@@H](O)[C@H]2[C@H]1CO | > 100 µM |  |
| COc1cc(OC)c(-c2ccc(OCc3ccccc3)c3c(OC)cc(C)cc23)c2c1C(C)=N[C@H](C)C2 | 4.81 µM |  |

| SMILES | TGI | GI50 |
| --- | --- | --- |
| COc1cc(/C=C2\C[C@H]3[C@@H]4CCc5cc(O)ccc5[C@H]4CC[C@]3(C)C2=O)cc(OC)c1OC | 34.6 µM |  |
| O=[N+]([O-])c1ccc(C2=Nn3cnnc3SC2)o1 | > 100 µM |  |
| c1nc(OCC2CCCCC2)c2[nH]cnc2n1 | > 100 µM |  |
| CCN(CC)CC1CCCCCCCCCCC1=O (centres undefined) | > 100 µM |  |
| Nc1c2c(nc3cc(F)c(F)cc13)CCC2 | > 100 µM |  |
| O=C1C(Cl)N(c2ccc(Cl)cc2)C1c1c[nH]c2ccccc12 (centres undefined) | 30.3 µM |  |
| Oc1cn(-c2ccc(Cl)cc2)nc1-c1nnc(-c2ccccc2)o1 | 3.58 µM | 0.165 µM |
| Cn1nc(N)c2cc([C@@H]3Nc4ccc5[nH]ncc5c4[C@H]4C5CCC(C5)[C@@H]34)ccc21 (some centres undefined) | 46.5 µM | 1.28 µM |
| Cc1cc(CC(O)c2ccc(Cl)c(Cl)c2)nc(=O)[nH]1 (centres undefined) | > 100 µM |  |
| CC1=C(C(=O)Nc2ccccc2)C(c2ccccc2)C(C(=O)Nc2ccccc2)=C(C)N1 | > 100 µM |  |
| COc1ccc(C2C(Cl)C(=O)N2n2cnc3ccccc3c2=O)cc1 (centres undefined) | > 100 µM |  |
| O=C(Cc1ccc(/C=C/C(=O)c2ncc[nH]2)cc1)Nc1cc(F)c(F)c(F)c1 | 10.2 µM | 4.35 µM |
| COC(=O)c1cc2c3c(ccc2[nH]1)N(C(=O)c1cc2cc(OC)c(OC)c(OC)c2[nH]1)CC3CCl (centres undefined) | > 100 µM |  |
| N#CC(N)(C(=O)CCC(=O)Nc1cccc(Cl)c1)c1ccc(Cl)cc1 (centres undefined) | > 100 µM |  |
| O=C1NC(=O)C(c2c[nH]c3ccccc23)=C1c1cnc[nH]1 | > 100 µM |  |
| C1C2CC3CC1CC(Nc1nc(NC45CC6CC(CC(C6)C4)C5)nc(NC45CC6CC(CC(C6)C4)C5)n1)(C2)C3 | > 69 µM |  |
| CC(=O)c1ccc(NCc2cc(O)ccc2O)cc1 | 54.9 µM |  |
| COC1(OC)CC2C(=O)N(Cc3ccccc3)C1C(S(=O)(=O)c1ccccc1)C2S(=O)(=O)c1ccccc1 (centres undefined) | > 100 µM |  |
| Cc1c([N+](=O)[O-])ccc2c(NCCCN(C)C)ccnc12 | > 100 µM |  |
| COc1cc(C2SCC(=O)N2c2ccccn2)cc(OC)c1OC (centres undefined) | > 100 µM |  |
| COc1ccc(N2C(=O)/C(=C(\C)c3cc4ccccc4oc3=O)N=C2c2cc([N+](=O)[O-])ccc2Cl)cc1 | > 100 µM |  |
